Among the data in article PMC7320043 are binding values, retold here.

This experiment has as its target Fbxl17 two-hybrid bait, FBD and LRRs (321-701aa) (human) (UniProt Q9UF56). The experiment in a line: two-hybrid; Matchmaker Gold system (Clontech); bait Fbxl17 aa 321 to 701 in pGBKT7; screen of a normalized universal human cDNA library (Mate & Plate) with prey fused to the Gal4 activation domain.

No constants are given. Whether binding was seen depends on the method and setting. Some results given as binding are weak or reduced against the parent protein; the word gives no strength.

B1: Component of oligomeric golgi complex 2, two-hybrid prey (domain or fragment, UniProt Q14746 457-534)
chain: FVNELSLRPISNESPKEIKKPLVTGSKEPSITQGNTEDQGSGPSETKPVVSISRTQLVYVVADLDKLQEQLPELLEII
For B1, the binding result is given as “binds”.

B2: Transmembrane protein 126A, two-hybrid prey (domain or fragment, UniProt Q9H061 89-195)
chain: FPLNTGDLDCETCTITRSGLTGLVIGGLYPVFLAIPVNGGLAARYQSALLPHKGNILSYWIRTSKPVFRKMLFPILLQTMFSAYLGSEQYKLLIKALQLSEPGKEIH
As to B2, the binding entry is on record as “binds”.
